Data on 67 sequences can be found in the supplement of paper PMC10126150.

The subject of the data set is ATP. Nature of the data set: switch fluorescence ratio, 500 uM ATP over buffer (Cy3 cluster intensity, sum of 5 cycles each) (fold (ratio)); higher = stronger signal-on switching upon ATP binding; sequences stand for … in TCGTCGGCAGCGTCAGATGTGTATAAGAGACAGTTTTTTTTTTTTTTTTTTTTTTTTT…TC. Particulars: aptamer strand: ATP DNA aptamer (quencher-CACCTGGGGGAGTATTGCGGAGGAAGG + anchor), 100 nM annealed; ATP concentration: 500 uM; one replicate. The method in brief: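 For every switch-domain sequence, the fluorescence ratio is the mean of per-cluster values, each being summed target-cycle Cy3 intensity over summed buffer-cycle Cy3 intensity. Clusters outside 100-1000 RFU were excluded. On a modified Illumina MiSeq flow-cell, the Cy3-labelled switching-strand clusters were annealed to 100 nM quencher-labelled ATP aptamer, imaged in selection buffer and then after 15 min with 500 uM ATP at 22 °C. Five such cycles were run, with NaOH stripping and re-annealing between them.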

Sequences with one replicate were seen in a single cluster, so their values are uncertain.
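Also: ATP exposure 15 min at 22 °C before imaging.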

Take CCTCTAGAGG: the switch fluorescence ratio was found to be 1.07.

In the case of CCCTGGTTAT, the switch fluorescence ratio is 1.03.

In the case of GAATTTTTAT, the switch fluorescence ratio stood at 0.992.

On to AACTAGTGCA, for which the switch fluorescence ratio worked out at 0.954.

Consider CACTTCGGGT, for which the switch fluorescence ratio was found to be 0.999.

As to GGTGGTTGCG, the switch fluorescence ratio turned out to be 1.03.

Take GATCGCTCTC: the switch fluorescence ratio was 1.42.

As for CAGGGGGAAG, the switch fluorescence ratio came out at 1.04.

TAGCGTAAGC: the switch fluorescence ratio was 0.968.

Consider AAGACGTAGA, for which the switch fluorescence ratio came to 0.991.

Take TATCTTTACA: the switch fluorescence ratio turned out to be 1.04.

Consider CGTAAGTTCC, for which the switch fluorescence ratio was determined as 1.13.

In the case of TAACGTTCAA, the switch fluorescence ratio worked out at 1.05.

With CGATTGTGCA, the switch fluorescence ratio came to 0.99.

For the sequence TTCCCTGAGG, the switch fluorescence ratio turned out to be 1.05.

With CGTAGAAGAA, the switch fluorescence ratio amounted to 1.04.

As to GAGGTAGCCG, the switch fluorescence ratio amounted to 0.939.

Consider TGTATATCGT, for which the switch fluorescence ratio is 1.12.

Consider CCGGACTGAG, for which the switch fluorescence ratio came out at 1.04.

With AGTGAGAAAG, the switch fluorescence ratio is 0.986.

For AGTGGAGGCA, the switch fluorescence ratio amounted to 0.963.

ATAAAGAGAA: the switch fluorescence ratio turned out to be 1.

With GATGTCTGTG, the switch fluorescence ratio came out at 0.964.

As to GAACAGGGGT, the switch fluorescence ratio was found to be 1.04.

In the case of GGGATTGCGC, the switch fluorescence ratio was determined as 1.01.

With GAGAATATTA, the switch fluorescence ratio was determined as 0.946.

On to GGTGATACG, for which the switch fluorescence ratio worked out at 0.993.

In the case of CTAACAAGGT, the switch fluorescence ratio was 1.04.

As for AATAGGCGAG, the switch fluorescence ratio was 1.01.

On to TATTAGCTTG, for which the switch fluorescence ratio is 1.02.

For the sequence CAGCGGGCGG, the switch fluorescence ratio was found to be 0.987.

With GTTGAGCCCA, the switch fluorescence ratio is 1.01.

On to TCAGTCGTTC, for which the switch fluorescence ratio is 0.964.

As for CTGTTGTGGA, the switch fluorescence ratio was determined as 1.04.

GCATACCAAG: the switch fluorescence ratio stood at 1.01.

Consider GCGAAAGTGT, for which the switch fluorescence ratio amounted to 1.

Turning to CCATAAGAGA, the switch fluorescence ratio came to 1.04.

For GATGAATTTG, the switch fluorescence ratio is 1.03.

For the sequence TAGCGTTGAG, the switch fluorescence ratio was found to be 0.986.

Consider CGACCAGCTC, for which the switch fluorescence ratio worked out at 1.57.

For TTAAAGACG, the switch fluorescence ratio stood at 1.01.

Regarding TCAGGGCGAC, the switch fluorescence ratio was 1.04.

For the sequence AACGATGTTC, the switch fluorescence ratio is 0.979.

As to ACCTCTTACG, the switch fluorescence ratio was 1.02.

With CTTAGGAAAT, the switch fluorescence ratio amounted to 1.04.

For CAATGCGTGA, the switch fluorescence ratio is 1.

On to GGCCTCGCAG, for which the switch fluorescence ratio came to 1.17.

Consider GGCAACGTCA, for which the switch fluorescence ratio worked out at 1.01.

With TACTTCGTGA, the switch fluorescence ratio was 1.63.

With TAAGACTCTG, the switch fluorescence ratio was 0.865.

For CCCATTCACA, the switch fluorescence ratio is 1.04.

CGAAGCGGGA: the switch fluorescence ratio is 1.38.

As to AGACAGGATA, the switch fluorescence ratio turned out to be 0.999.

On to GTATAGAGGG, for which the switch fluorescence ratio turned out to be 0.971.

For ATAAATAAAT, the switch fluorescence ratio turned out to be 0.998.

For the sequence CCGCAGGGGA, the switch fluorescence ratio turned out to be 3.89.

On to TTAGTAAGA, for which the switch fluorescence ratio was found to be 1.01.

Regarding AATAGGGACT, the switch fluorescence ratio was found to be 0.991.

Consider ACAGTTCGCT, for which the switch fluorescence ratio worked out at 1.07.

As for TCGAGTTGAG, the switch fluorescence ratio was found to be 1.01.

As for GAGCCGGAGT, the switch fluorescence ratio stood at 1.04.

For TAAAGAGAAC, the switch fluorescence ratio was 1.

Consider AGCCTGACGC, for which the switch fluorescence ratio was 1.29.

Consider ATAAAAAACC, for which the switch fluorescence ratio amounted to 1.12.

For the sequence TTTATGTCCT, the switch fluorescence ratio came to 0.973.

As to TCGCGGCTG, the switch fluorescence ratio came out at 0.976.

As for TACGGGACAG, the switch fluorescence ratio stood at 1.05.
